According to PubChem BioAssay (NCI):
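Each compound was tested at five concentrations against cells in 96-well plates for 48 hours. GI50 marks 50% less growth. The concentration for full growth arrest is given as TGI.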

System: NCI-H322M lung
Assay: NCI anticancer screen, dose series, 48 h

Row | Structure (SMILES) | TGI [µM] | GI50 [µM]
1 | COc1cccc(-c2ccc3c4c2O[C@H]2C(=O)CC[C@@]5(O)[C@@H](C3)N(CC3CC3)CC[C@]425)c1 | 37.6 | 
2 | NC(N)=N/N=C/c1c[nH]c2ccccc12 | > 100 | 
3 | COC(C(O)CO)C(O)C(O)C(=O)NNc1ccccc1 (stereo unspecified) | > 100 | 
4 | CCN(CC)C(=S)N/N=C(/C)c1cccc(/C(C)=N\NC(=S)N(CC)CC)n1 | 3.63 | 
5 | Cc1ccn2c(c1)nc1nc3ccccc3nc12 | > 100 | 
6 | CCN(CC)C(=O)Cn1c(C)cc2ccccc21 | > 100 | 
7 | NC(N)=N/N=C(\c1nc2ccc([N+](=O)[O-])cc2[nH]c1=O)C(O)c1ccc([N+](=O)[O-])cc1 (stereo unspecified) | > 100 | 
8 | Oc1cccnc1CN1CCCCC1 | > 100 | 
9 | CC1OC(OC2C(O[C@H]3CC[C@@]4(C)C(=CC[C@H]5[C@@H]6C[C@@H]7O[C@]8(CC[C@@H](CO)CO8)[C@@H](C)[C@@H]7[C@@]6(C)CC[C@@H]54)C3)OC(CO)C(O)C2OC2OC(CO)C(O)C(O)C2O)C(O)C(O)C1O (stereo partly specified) | 4.88 | 
10 | CCOC(=O)c1c(C)n(Cc2ccc(Cl)cc2Cl)c2c1c(CN(C)C)c(O)c1[nH]cnc12 | 36.2 | 19.9
11 | Cc1ccc(C2=C(c3ccccc3)C(Br)(c3ccc(C)cc3)C(c3ccccc3)=C2c2ccc(C)cc2)cc1 | > 100 | 
12 | Cc1c(S(=O)(=O)/N=C(\NO)Nc2ccc(Cl)c(Cl)c2)sc2ccc(Cl)cc12 | 37.4 | 
13 | c1ccc2c(c1)ccn2CCc1c[nH]c2ccccc12 | > 10 | 
14 | COc1ccc(-c2n[nH]nc2-c2cc(OC)c(OC)c(OC)c2)cc1 | > 100 | < 0.0142
15 | O=C(c1ccc(N=Cc2ccccc2O)cc1)c1ccc(N=Cc2ccccc2O)cc1 | > 100 | 
16 | COC(=O)[C@H](C)NC(=O)NC(=O)NC(=O)CI | > 100 | > 100
17 | CC1(C)SCc2nc3ncccc3n21 | > 100 | 
18 | COC1=CC(=O)c2nc(-c3cccc(C)n3)[nH]c2C1=O | 46.1 | 20
19 | COc1ccc(C(=O)C(C(=O)CCC(=O)Nc2cccc(Cl)c2)c2ccc(OC)cc2)cc1 (stereo unspecified) | > 100 | 
20 | O=S(=O)(N=S(c1ccccc1)c1ccccc1)c1ccccc1 | > 100 | 
21 | COc1cc(C=C2C(=O)NC(=O)NC2=O)cc(OC)c1OC | > 100 | 
22 | CCCCCCCC/C=C/CCCCCCCC(=O)OC[C@H]1O[C@@H](n2ccc(N)nc2=O)C(F)(F)[C@@H]1O | > 100 | 0.452
23 | CCOC(=O)c1cc(C(O)P2(=O)N(CC(C)(C)C)[C@@H]3CCCC[C@H]3N2CC(C)(C)C)cn1C(=O)OC(C)(C)C (stereo partly specified) | 47.7 | 
24 | COC(=O)/C(=N\Nc1nnc(C)n1N)C(C#N)c1ccc(Cl)cc1 (stereo unspecified) | > 100 | 
25 | COc1cc2ncnc(Nc3ccc(C)c(O)c3)c2cc1OC | > 18.9 | 1.35

Row | Structure (SMILES) | TGI [µM] | GI50 [µM]
26 | CC(C)(C)c1ccc2c(c1)S(=O)(=O)Nc1ccccc1NS(=O)(=O)c1cc(C(C)(C)C)ccc1OCCOCCOCCO2 | > 100 | 
27 | O=C1/C(=C/c2ccc([N+](=O)[O-])cc2)C(=O)N(c2ccccc2)C1c1ccccc1 (stereo unspecified) | > 10 | 
28 | O=C1CCC(c2ccc(Cl)cc2)=NN1c1nsc2ccccc12 | > 100 | 
29 | O=C(NCCCNCCCNC(=O)c1cc(-c2ccccc2)nc2ccccc12)c1cc(-c2ccccc2)nc2ccccc12 | 4.85 | 
30 | O=C(O)Cc1cccc2c(=O)c3ccccc3oc12 | > 100 | 
31 | COc1ccccc1/C=C1\SC(=S)N(/C=C2\C(=O)Oc3ccccc3C2=O)C1=O | > 100 | 
32 | C=C1C(=O)O[C@@H]2/C=C(\C)CC/C=C(/COC(C)=O)C[C@@H](OC(C)=O)[C@@H]12 | > 100 | 
33 | CC(C)[Si](OC1=C(C(=O)N(C)c2cccc(Cl)c2)CCCC1)(C(C)C)C(C)C | 29.3 | 
34 | COc1ccccc1CCc1cc(OC)c(OC)c(OC)c1 | > 100 | 
35 | C[C@@]12CC=C3c4nc(Nc5cccc(O)c5)sc4CC[C@]3(C)[C@H]1CC[C@]1(C)C(=O)CC[C@@H]21 | > 100 | 3.92
36 | Cc1cn(C2CC(O)C(CO)O2)c(=O)n2nnnc12 (stereo unspecified) | > 100 | 
37 | O=C(N/N=C/c1ccccc1)c1c(-c2cccnc2)cnc2ccccc12 | > 100 | 
38 | O=C(N/N=C\c1cccc2c([N+](=O)[O-])cccc12)Nc1ccccc1 | 29 | 
39 | Cn1c(=O)c(C(c2ccc([N+](=O)[O-])cc2)c2c(O)c3ccccc3n(C)c2=O)cc2ccccc21 (stereo unspecified) | > 100 | 
40 | CC(C)(C)c1cc(C(C)(C)C)cc(S(=O)(=O)Nc2cc3ccccc3cc2C(=O)NCCN)c1 | 3.62 | 1.89
41 | CCOc1ccccc1NC(=O)CC(C(=O)OC)C(=O)C(=O)OC (stereo unspecified) | > 100 | 
42 | C1=CC2SSSC2C1 (stereo unspecified) | > 100 | 
43 | Cc1ccc(/C=C2\CCCc3ccccc3C2=O)cc1 | > 100 | 
44 | CC(C)C(Nc1c2ccccc2nc2ccccc12)C(=O)O (stereo unspecified) | > 100 | 
45 | COc1ccc(/C=C/c2ccnc3ccccc23)c(OC)c1 | > 10 | 
46 | O=C1CSC(c2cccc(Oc3ccccc3)c2)N1c1ccc(Cl)cc1 (stereo unspecified) | > 100 | 
47 | CC1(C)NC2C(=O)c3c([nH]c4ccccc34)[C@]3(C)CCC1CC23 (stereo partly specified) | > 100 | 
48 | NS(=O)(=O)c1ccc(N=Nc2c(O)[nH]c3ccc(-c4cnco4)cc23)cc1 | > 25 | > 25
49 | CC(=O)[O-].CCN(CC)c1ccc(C=NCCN=Cc2ccc(N(CC)CC)cc2[O-])c([O-])c1.[Mn+3] | 43 | 22.6
50 | CN1CCN(CCCOc2ccc3nc(Nc4ccc(Cl)c(C(F)(F)F)c4)ccc3c2)CC1 | 29.5 | 15.2
